This is one part of the list.
Legend:
Assay in all cases: glycan array binding signal (z-score within array); higher = stronger binding
Details in all cases: glycan notation: IUPAC condensed, linker removed
[1] = target: Gal(b1-4)GlcNAc(b1-3)Gal(b1-4)GlcNAc(b1-2)[Gal(b1-4)GlcNAc(b1-3)Gal(b1-4)GlcNAc(b1-6)]Man(a1-6)[Gal(b1-4)GlcNAc(b1-3)Gal(b1-4)GlcNAc(b1-2)Man(a1-3)]Man(b1-4)GlcNAc(b1-4)GlcNAc
How it was run: (§1)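 Arrays were curated from the Consortium for Functional Glycomics database, 3228 in total, and kept only where the protein sequence was available. Binding is expressed as a within-array Z-score. This score was averaged across arrays of the same protein sequence at different concentrations or buffers and across linkers, and negative values can be read as non-binding.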

[2] = target: Gal(b1-4)GlcNAc(b1-3)Gal(b1-4)GlcNAc(b1-2)[Gal(b1-4)GlcNAc(b1-3)Gal(b1-4)GlcNAc(b1-6)]Man(a1-6)[Gal(b1-4)GlcNAc(b1-3)Gal(b1-4)GlcNAc(b1-2)Man(a1-3)]Man(b1-4)GlcNAc(b1-4)[Fuc(a1-6)]GlcNAc
How it was run: as §1

[3] = target: Gal(b1-4)GlcNAc(b1-3)Gal(b1-4)GlcNAc(b1-3)Gal(b1-4)GlcNAc
How it was run: as §1

[4] = target: Gal(b1-4)GlcNAc(b1-3)Gal(b1-4)GlcNAc(b1-3)Gal(b1-4)GlcNAc(b1-2)Man(a1-3)[Gal(b1-4)GlcNAc(b1-3)Gal(b1-4)GlcNAc(b1-3)Gal(b1-4)GlcNAc(b1-2)Man(a1-6)]Man(b1-4)GlcNAc(b1-4)GlcNAc
How it was run: as §1

[5] = target: Gal(b1-4)GlcNAc(b1-3)Gal(b1-4)GlcNAc(b1-3)Gal(b1-4)GlcNAc(b1-2)Man(a1-3)[Gal(b1-4)GlcNAc(b1-3)Gal(b1-4)GlcNAc(b1-3)Gal(b1-4)GlcNAc(b1-2)Man(a1-6)]Man(b1-4)GlcNAc(b1-4)[Fuc(a1-6)]GlcNAc
How it was run: as §1

[6] = target: Gal(b1-4)GlcNAc(b1-3)Gal(b1-4)GlcNAc(b1-3)Gal(b1-4)GlcNAc(b1-2)[Gal(b1-4)GlcNAc(b1-3)Gal(b1-4)GlcNAc(b1-3)Gal(b1-4)GlcNAc(b1-6)]Man(a1-6)[Gal(b1-4)GlcNAc(b1-3)Gal(b1-4)GlcNAc(b1-3)Gal(b1-4)GlcNAc(b1-2)Man(a1-3)]Man(b1-4)GlcNAc(b1-4)[Fuc(a1-6)]GlcNAc
How it was run: as §1

[7] = target: Gal(b1-4)GlcNAc(b1-3)Gal(b1-4)GlcNAc(b1-3)Gal(b1-4)GlcNAc(b1-3)Gal(b1-4)GlcNAc(b1-2)Man(a1-3)[Gal(b1-4)GlcNAc(b1-3)Gal(b1-4)GlcNAc(b1-3)Gal(b1-4)GlcNAc(b1-3)Gal(b1-4)GlcNAc(b1-2)Man(a1-6)]Man(b1-4)GlcNAc(b1-4)GlcNAc
How it was run: as §1

[8] = target: Gal(b1-4)GlcNAc(b1-3)Gal(b1-4)GlcNAc(b1-3)Gal(b1-4)GlcNAc(b1-3)Gal(b1-4)GlcNAc(b1-2)Man(a1-3)[Gal(b1-4)GlcNAc(b1-3)Gal(b1-4)GlcNAc(b1-3)Gal(b1-4)GlcNAc(b1-3)Gal(b1-4)GlcNAc(b1-2)Man(a1-6)]Man(b1-4)GlcNAc(b1-4)[Fuc(a1-6)]GlcNAc
How it was run: as §1

[9] = target: Gal(b1-4)GlcNAc(b1-3)Gal(b1-4)GlcNAc(b1-3)Gal(b1-4)GlcNAc(b1-3)Gal(b1-4)GlcNAc(b1-2)[Gal(b1-4)GlcNAc(b1-3)Gal(b1-4)GlcNAc(b1-3)Gal(b1-4)GlcNAc(b1-3)Gal(b1-4)GlcNAc(b1-6)]Man(a1-6)[Gal(b1-4)GlcNAc(b1-3)Gal(b1-4)GlcNAc(b1-3)Gal(b1-4)GlcNAc(b1-3)Gal(b1-4)GlcNAc(b1-2)Man(a1-3)]Man(b1-4)GlcNAc(b1-4)[Fuc(a1-6)]GlcNAc
How it was run: as §1

[10] = target: Gal(b1-4)GlcNAc(b1-3)Gal(b1-4)GlcNAc(b1-3)Gal(b1-4)GlcNAc(b1-3)Gal(b1-4)GlcNAc(b1-3)Gal(b1-4)GlcNAc(b1-2)Man(a1-3)[Gal(b1-4)GlcNAc(b1-3)Gal(b1-4)GlcNAc(b1-3)Gal(b1-4)GlcNAc(b1-3)Gal(b1-4)GlcNAc(b1-3)Gal(b1-4)GlcNAc(b1-2)Man(a1-6)]Man(b1-4)GlcNAc(b1-4)GlcNAc
How it was run: as §1

[11] = target: Gal(b1-4)GlcNAc(b1-3)Gal(b1-4)GlcNAc(b1-3)Gal(b1-4)GlcNAc(b1-3)Gal(b1-4)GlcNAc(b1-3)Gal(b1-4)GlcNAc(b1-2)Man(a1-3)[Gal(b1-4)GlcNAc(b1-3)Gal(b1-4)GlcNAc(b1-3)Gal(b1-4)GlcNAc(b1-3)Gal(b1-4)GlcNAc(b1-3)Gal(b1-4)GlcNAc(b1-2)Man(a1-6)]Man(b1-4)GlcNAc(b1-4)[Fuc(a1-6)]GlcNAc
How it was run: as §1

[12] = target: Gal(b1-4)GlcNAc(b1-3)Gal(b1-4)GlcNAc(b1-3)Gal(b1-4)GlcNAc(b1-3)Gal(b1-4)GlcNAc(b1-3)Gal(b1-4)GlcNAc(b1-2)[Gal(b1-4)GlcNAc(b1-3)Gal(b1-4)GlcNAc(b1-3)Gal(b1-4)GlcNAc(b1-3)Gal(b1-4)GlcNAc(b1-3)Gal(b1-4)GlcNAc(b1-6)]Man(a1-6)[Gal(b1-4)GlcNAc(b1-3)Gal(b1-4)GlcNAc(b1-3)Gal(b1-4)GlcNAc(b1-3)Gal(b1-4)GlcNAc(b1-3)Gal(b1-4)GlcNAc(b1-2)Man(a1-3)]Man(b1-4)GlcNAc(b1-4)[Fuc(a1-6)]GlcNAc
How it was run: as §1

[13] = target: Gal(b1-4)GlcNAc(b1-3)Gal(b1-4)GlcNAc(b1-3)Gal(b1-4)GlcNAc(b1-3)Gal(b1-4)GlcNAc(b1-3)Gal(b1-4)GlcNAc(b1-3)Gal(b1-4)GlcNAc(b1-2)Man(a1-3)[Gal(b1-4)GlcNAc(b1-3)Gal(b1-4)GlcNAc(b1-3)Gal(b1-4)GlcNAc(b1-3)Gal(b1-4)GlcNAc(b1-3)Gal(b1-4)GlcNAc(b1-3)Gal(b1-4)GlcNAc(b1-2)Man(a1-6)]Man(b1-4)GlcNAc(b1-4)GlcNAc
How it was run: as §1

[14] = target: Gal(b1-4)GlcNAc(b1-3)Gal(b1-4)GlcNAc(b1-3)GalNAc
How it was run: as §1

[15] = target: Gal(b1-4)GlcNAc(b1-3)Gal(b1-4)GlcNAc(b1-3)[Gal(b1-4)GlcNAc(b1-3)Gal(b1-4)GlcNAc(b1-6)]GalNAc
How it was run: as §1

[16] = target: Gal(b1-4)GlcNAc(b1-3)Gal(b1-4)GlcNAc(b1-6)[Gal(b1-3)]GalNAc
How it was run: as §1

[17] = target: Gal(b1-4)GlcNAc(b1-3)Gal(b1-4)[Fuc(a1-3)]GlcNAc(b1-3)Gal(b1-4)[Fuc(a1-3)]GlcNAc
How it was run: as §1

[18] = target: Gal(b1-4)GlcNAc(b1-3)GalNAc
How it was run: as §1

[19] = target: Gal(b1-4)GlcNAc(b1-3)[Fuc(a1-3)GlcNAc(b1-6)]Gal(b1-4)Glc
How it was run: as §1

[20] = target: Gal(b1-4)GlcNAc(b1-3)[Gal(b1-4)GlcNAc(b1-6)]Gal(b1-4)GlcNAc
How it was run: as §1

[21] = target: Gal(b1-4)GlcNAc(b1-3)[GlcNAc(b1-6)]Gal(b1-4)GlcNAc
How it was run: as §1

[22] = target: Gal(b1-4)GlcNAc(b1-6)Gal(b1-4)GlcNAc
How it was run: as §1

[23] = target: Gal(b1-4)GlcNAc(b1-6)GalNAc
How it was run: as §1

[24] = target: Gal(b1-4)GlcNAc(b1-6)[Gal(b1-3)]GalNAc
How it was run: as §1

[25] = target: Gal(b1-4)GlcNAc(b1-6)[Gal(b1-4)GlcNAc(b1-3)]GalNAc
How it was run: as §1

[26] = target: Gal(b1-4)GlcNAc6P
How it was run: as §1

[27] = target: Gal(b1-6)Gal
How it was run: as §1

[28] = target: Gal3S(b1-3)GalNAc
How it was run: as §1

[29] = target: Gal3S(b1-3)GlcNAc
How it was run: as §1

[30] = target: Gal3S(b1-3)[Fuc(a1-4)]GlcNAc
How it was run: as §1

[31] = target: Gal3S(b1-4)Glc
How it was run: as §1

[32] = target: Gal3S(b1-4)Glc6S
How it was run: as §1

[33] = target: Gal3S(b1-4)GlcNAc
How it was run: as §1

[34] = target: Gal3S(b1-4)[Fuc(a1-3)]Glc6S
How it was run: as §1

[35] = target: Gal3S(b1-4)[Fuc(a1-3)]GlcNAc
How it was run: as §1

[36] = target: Gal3S(b1-4)[Fuc(a1-3)]GlcNAc6S
How it was run: as §1

[37] = target: Gal3S4S(b1-4)GlcNAc
How it was run: as §1

B1: PX9961X-pdi-531-24-531 (Parabacteroides distasonis) (protein)
chain: DLTEEIHSSVIAENYYNNAGEVMAAMMRPWGHFCGTMQVAQSPWSCNELSSDCAAWPQKGRHGYDNGDWIRLHRHQWIPTDGQVVDAWKKLFEGIGYANNFLTDTENIDFEALQVPMSKAQAQAEMRVYRAYCYWYVMDMFGTAPICEKIGEINPSSKSRAELFAWIEKELNESIPSLSESKTETYGRVSKWGAYALLARLYLNAEIYTGQARWDDCIAACDELAKGGFALDKKWNDTFRADNDKRSTEIIWSIVYDEVYAKGMGWYQRWLHYAHQTGWDLQSGPWNGLVTQPTFYDSFADNDLRKIEGFLIGKQYPRKVDENGNYYYDTTAEPLKGSEEYNGQDLVFVNYIKSMTEGEENSGARSIKYEIQPGTTGDMNNDWVMFRYSEVIYNKAEALMRKNGGKATQEVVDMINSVRQRSFKAEDWEKAKYTTATLTMDEFLAEKGREFAFEGIRRTDLVRFNKFVTTSWWDKTASNEPKRNIFPIPQRQLDANANLSPNEANSLF
B1 was tested, and the “glycan array binding signal (z-score)” value [1] was 2.17, the “glycan array binding signal (z-score)” value [2] was 1.85 and the “glycan array binding signal (z-score)” value [3] was -0.056. For the same binder, the “glycan array binding signal (z-score)” value [4] was 0.855, the “glycan array binding signal (z-score)” value [5] was 0.433 and the “glycan array binding signal (z-score)” value [6] was 1.3. For the same binder, the “glycan array binding signal (z-score)” value [7] was 0.298, the “glycan array binding signal (z-score)” value [8] was 0.526 and the “glycan array binding signal (z-score)” value [9] was 3.6. The “glycan array binding signal (z-score)” value [10] was 0.491, the “glycan array binding signal (z-score)” value [11] was 0.433 and the “glycan array binding signal (z-score)” value [12] was 3.41. For the same binder, the “glycan array binding signal (z-score)” value [13] was 0.947, the “glycan array binding signal (z-score)” value [14] was 0.788 and the “glycan array binding signal (z-score)” value [15] was 0.654. The “glycan array binding signal (z-score)” value [16] was -0.746, the “glycan array binding signal (z-score)” value [17] was -0.285 and the “glycan array binding signal (z-score)” value [18] was -0.769. For the same binder, the “glycan array binding signal (z-score)” value [19] was -0.157, the “glycan array binding signal (z-score)” value [20] was -0.863 and the “glycan array binding signal (z-score)” value [21] was -0.687. The “glycan array binding signal (z-score)” value [22] was -0.303, the “glycan array binding signal (z-score)” value [23] was -0.012 and the “glycan array binding signal (z-score)” value [24] was -0.374. The “glycan array binding signal (z-score)” value [25] was 1.02, the “glycan array binding signal (z-score)” value [26] was -0.916 and the “glycan array binding signal (z-score)” value [27] was -0.051. The “glycan array binding signal (z-score)” value [28] was -0.342, the “glycan array binding signal (z-score)” value [29] was -0.546 and the “glycan array binding signal (z-score)” value [30] was 0.453. The “glycan array binding signal (z-score)” value [31] was 0.131, the “glycan array binding signal (z-score)” value [32] was 0.067 and the “glycan array binding signal (z-score)” value [33] was -0.651. The “glycan array binding signal (z-score)” value [34] was 1.07, the “glycan array binding signal (z-score)” value [35] was -0.375 and the “glycan array binding signal (z-score)” value [36] was 0.347. The “glycan array binding signal (z-score)” value [37] was -1.15.

Source: the supplement of paper PMC8728848
